From ChEMBL document CHEMBL1157539, “Thousands of chemical starting points for antimalarial lead identification” (Nature, 2010) come the findings set out here.

In all, about 13,000 compounds were measured (“IFI”: median about 4, highest 2% from about 17 on). Some of the results follow.

The test in a line: GSK_TCMDC: Inhibition Frequency Index (IFI). The number of non-kinase HTS assays where a compound showed > 50 % inhibition, expressed as a percentage of the number of such assays in which the compound was tested (-0 is zero). In kind it is functional.
For the compound `CCc1c(C(=O)NC2CCC(N3CCC(c4ccccc4OC)CC3)CC2)[nH]c2ccc(Br)cc12` (stereo not given), the IFI was found to be 16.4%.

For `CCCCCCOc1ccc(N2C(N)=NC(N)=NC2(C)C)cc1`, the IFI is 2.92%.

Consider `CN1CCC(C(=O)N(Cc2ccc(-c3ccc(CNCCc4ccc(S(C)(=O)=O)cc4)cn3)cc2)Cc2ccc3c(c2)OCO3)CC1`, for which the IFI was determined as 3.47%.

Compound `COc1ccc(NC(=O)NC2CCN(c3ccnc4cc(Cl)ccc34)CC2)cc1` displayed an IFI of -0%.

Compound `CNC(=O)c1ccccc1Nc1nc(Nc2cccnc2)ncc1C` yielded an IFI of 0%.

`CCc1cn(C)c2c(N3CCCC3=O)cc(C(=O)N[C@@H](Cc3ccccc3)[C@H](O)CNC(C)(C)c3cccc(OC)c3)cc12` yielded an IFI of 5%.

With `CCNc1cc(C(=O)N[C@@H](Cc2ccccc2)[C@H](O)CNC2CCCCC2)cc(N2CCCCS2(=O)=O)c1`, the IFI is 1.46%.

The compound `CC(=O)Nc1cccc(CNCc2ccc(-c3cnc(N4CCCC(C)(C)C4)nc3)cc2)c1` returned an IFI of 2.47%.

Take `COc1ccc(N(c2nc(-c3cc(Cl)ccc3Cl)cs2)C2CCNC2)cc1` (stereo not given): the IFI came to 20%.

Take `CCN(CC)CCNc1ccnc2[nH]c3ccc(C)cc3c12`: the IFI was found to be 0%.

In the case of `COc1ccccc1N1CCN(CCCCNC(=O)c2ccc(NC(=O)c3cc(Cl)cc(Cl)c3)cc2)CC1`, the IFI is 3.57%.

`C=Cc1ccc(-c2c(C)[nH]c(C)c(Br)c2=O)cc1` yielded an IFI of 0.89%.

`CC(C)(C)Nc1cc(C2CC2)nc(-c2ccccn2)n1` showed an IFI of 2.68%.

As for `CN(C)CCOc1ccc(-c2cc(-c3ccnc(N)n3)c(-c3ccc(Cl)c(O)c3)o2)cc1`, the IFI turned out to be 5.04%.

`Cc1[nH]c(C)c(-c2ccc(-c3cccc(C(F)(F)F)c3)nc2)c(=O)c1Br` came in with an IFI of 4.55%.

Take `Cc1[nH]c(C)c(-c2ccc(-c3ccc(F)cc3)nc2)c(=O)c1Br`: the IFI stood at 1.82%.

`CN(C)Cc1ccc(-c2cccc(Nc3nccc(NCC(O)c4ccccc4)n3)c2)cc1` (stereo not given) showed an IFI of 11.2%.

`COc1cc2nc(Nc3ccc4c(cnn4Cc4ccccc4)c3)nc(Nc3ccc4c(cnn4Cc4ccccc4)c3)c2cc1OC` came in with an IFI of 6.4%.

Compound `CCC(=O)N(c1ccccc1)C1CCN(CCCC(NC(=O)c2cc(C(F)(F)F)cc(C(F)(F)F)c2)c2ccc(Cl)c(Cl)c2)CC1` (stereo not given) yielded an IFI of 3.57%.

For `Cc1ccc(/C=C/C(=O)NC2CCC(N3CCC(c4ccccc4C)CC3)CC2)cc1C` (stereo not given), the IFI worked out at 15%.

With `COc1cc2nc(NCCCOC(C)C)n3nc(-c4ccccc4)nc3c2cc1OC`, the IFI is 0.85%.

Regarding `COc1cccc2sc(N3CCN(C(=O)c4ccc([N+](=O)[O-])o4)CC3)nc12`, the IFI was found to be 0%.

`CCOc1cc[nH]c(=O)n1` showed an IFI of -0%.

Consider `COc1ccccc1CN1CCC(NC(=O)c2ccc(-c3cccc(Cl)c3)s2)CC1`, for which the IFI worked out at 8.62%.

On to `COc1cc(Nc2nccc(N3CCC(NC(=O)c4cccc(NC(C)=O)c4)C3)n2)cc(OC)c1OC` (stereo not given), for which the IFI came to 4.55%.

Take `O=S(=O)(NCCN1CCCC1)c1cccc(-c2cccc(CNCc3ccc(F)cc3)c2)c1`: the IFI was found to be 8.65%.

In turn, `COc1cccc(NC(=O)[C@H](C)n2c(=O)[nH]c3ccccc3c2=O)c1` yielded an IFI of 0%.

`CCN(CC)S(=O)(=O)c1ccc(Cl)c(C(=O)Nc2ccc3nc(C)sc3c2)c1`: the IFI was found to be 3.64%.

`CC(C)CCNc1nc(NCCCc2ccccc2)c2cc(O)ccc2n1`: the IFI turned out to be 11.3%.

Consider `CNc1ccc(CNCc2cccc(-c3ccc(-c4nc5cccc(C)c5[nH]4)s3)c2)cc1`, for which the IFI worked out at 11.9%.

`O=C(/C=C/c1ccc(Cl)c(Cl)c1)NCCCCN1CCCN(C(=O)Nc2ccc(F)c(Cl)c2)CC1` gave an IFI of 6.9%.

The compound `Cc1sc(CNCCCNc2cc(=O)c3ccccc3[nH]2)cc1Br` showed an IFI of 4.35%.

Consider `CCOc1cc(C)ccc1C1CCN(CCCCNC(=O)c2ccc(-c3ccc(C(F)(F)F)cn3)cc2)CC1`, for which the IFI came to 7.02%.

`Oc1cccc(-c2cnc3ccc(NCc4ccc(F)cc4)nn23)c1`: the IFI was determined as 4.65%.

`COc1cc2c(c(Cl)c1OC)CCN(Cc1ccccc1)CC2c1ccc(NC(=O)C(F)(F)F)cc1` (stereo not given) gave an IFI of 1.46%.

On to `c1ccc(CN2CCC(NCc3ccc(-c4cccc(CNC5CCCC5)c4)cc3)CC2)cc1`, for which the IFI was determined as 3.52%.

On to `Cc1nc2nc(N)nc(N)c2c(C)c1Cc1ccc(O)cc1`, for which the IFI was found to be 2.29%.

In the case of `Cn1cnc(CCNC(=O)c2ccc(-c3ccc(-c4nc5cc(F)ccc5[nH]4)cc3)cc2)c1`, the IFI came out at 3.81%.

The compound `O=C(CCc1cccc(O)c1)NCC(NCCCNc1cc(=O)c2ccccc2[nH]1)c1cc(Br)cc(Br)c1` (stereo not given) gave an IFI of 3.1%.

With `CN1CCN(CCCN(Cc2ccc(-c3ccc(CNC4CCCC4)cc3)cc2)C(=O)CCC2CCCC2)CC1`, the IFI is 8.22%.

`CCCN(CCC)c1nn2c(=O)c(C(=O)N3CCN(Cc4ccccc4)CC3)cnc2s1` came in with an IFI of 0%.

With `COCCn1c(-c2cccc(Cl)c2)nn(-c2ccc([N+](=O)[O-])cc2C#N)c1=S`, the IFI was 1.38%.

Turning to `N=C(NCC1CC1c1ccccc1)c1cccc(C(=N)NCC2CC2c2ccccc2)n1` (stereo not given), the IFI amounted to 5.65%.

As for `Fc1ccc2[nH]c(-c3ccc(-c4ccc(CN5CCN(c6ccncc6)CC5)cc4)cc3)nc2c1`, the IFI was 11.5%.

`COc1ccc(OC)c(NC(=O)CSc2nc(-c3ccccc3Cl)ns2)c1` showed an IFI of 1.63%.

`CCNc1cc(C(=O)N[C@@H](Cc2ccccc2)[C@H](O)CNCc2cccc(-c3cncnc3)c2)cc(N2CCCC2=O)c1`: the IFI is -0%.

`CC1CN(c2nc(NCCc3ccc(O)cc3)nc(NCc3ccccc3-c3ccc(C(F)(F)F)cc3)n2)CC(C)N1` (stereo not given) displayed an IFI of 17.2%.

The compound `Cc1ccc(NC(=O)c2ccc(Cl)cc2)cc1-c1ccc(C(=O)Nc2ccncc2)cc1` showed an IFI of 15.5%.

Compound `COc1ccc(CCc2ccc(-c3c(C)[nH]c(C)c(Cl)c3=O)cc2)cc1` registered an IFI of -0%.

Turning to `CN(CCN)Cc1ccc(-c2ccc(-c3nc4cc(F)ccc4[nH]3)s2)cc1`, the IFI amounted to 9%.

Compound `O=C(Nc1cccc(-c2cccc(-c3nc4cc(C(F)(F)F)ccc4[nH]3)c2)c1)c1csnn1` showed an IFI of 4.39%.

Take `FC(F)(F)COc1c(CNCCCCCCNCc2ccc3ccccc3c2OCC(F)(F)F)ccc2ccccc12`: the IFI was determined as 14.9%.

With `Cc1cc(NC2CCCC2)nc(Nc2ccccc2F)n1`, the IFI came out at 7.58%.

Compound `Cc1cc(N[C@@H](CC(C)C)C(=O)NCCc2ccccc2)nc(Nc2ccccc2)n1` came in with an IFI of 4.65%.

On to `CNS(=O)(=O)CCNCc1ccc(-c2ccc3ncnc(Nc4ccc(OCc5ccccc5)cc4)c3c2)o1`, for which the IFI is 2.86%.

With `Cc1cc(NCCC(=O)Nc2ccccc2)nc(NCC2CCCCC2)n1`, the IFI amounted to 11.6%.

In the case of `COc1ccc2nc3cc(Cl)ccc3c(NCCc3ccccc3)c2c1`, the IFI came to 0%.

The compound `Nc1ccc2[nH]cc(C3CCN(CCC4CCN(C(=O)/C=C/c5ccc(Cl)c(Cl)c5)CC4)CC3)c2n1` displayed an IFI of 8.76%.

Compound `Cc1ccc(N2C(N)=NC(N)=NC2(C)C)cc1Cl` yielded an IFI of 1.46%.

`Clc1ccc2c(NN=Cc3ccccc3)ccnc2c1` returned an IFI of 3.68%.

Take `COc1ccc(Cc2c(C)nc3nc(N)nc(N)c3c2C)cc1OC`: the IFI worked out at 2.16%.

Compound `CCCCCCC(N)c1ccc(OCCCOc2ccc(C(N)CCCCCC)cc2)cc1` (stereo not given) displayed an IFI of 24.5%.

For the compound `O=C(C=Cc1ccc(Cl)c(Cl)c1)NCCCCCN1CCCC(CCCNS(=O)(=O)c2cccc3cccnc23)C1` (stereo not given), the IFI stood at 5.8%.

Consider `CCOc1cc(C)ccc1N1CCN(CCN2CCC(NC(=O)c3ccc(-c4ccc(C#N)cc4)cc3)CC2)CC1`, for which the IFI stood at 3.67%.

As to `O=C(/C=C/c1ccc(Cl)c(Cl)c1)N1CCC(CCN2CCC(c3nc4cc(O)ccc4[nH]3)CC2)CC1`, the IFI amounted to 4.32%.

`CCN(CC)CCN(Cc1ccc(-c2ccc(C(F)(F)F)cc2)cc1)C(=O)Cn1cc(Cc2cnn(C)c2)c(=O)nc1/C=C/c1ccc(F)cc1`: the IFI was found to be 4.35%.

For the compound `C[C@H]1CN(Cc2cccc(-c3cc(CNC(=O)c4cccc(CC5CCN(C)CC5)c4)ccc3F)c2)CCN1C`, the IFI came out at 5.79%.

`CCCC[C@H](NC(=O)OC(C)(C)C)C(=O)Nc1ccc(Cc2ccc(NC(=O)[C@H](CCCC)NC(=O)OC(C)(C)C)cc2)cc1` came in with an IFI of 0.75%.

For the compound `COc1ccc2[nH]cc(C3CCN(CCCCCNC(=O)c4ccc(-c5ccccc5)cc4)CC3)c2c1`, the IFI worked out at 8.4%.

Turning to `CCCc1cc(Cc2cnc(N)nc2N)cc(CCC)c1OC`, the IFI is 3.85%.

For the compound `CN1CCN(Cc2ccc(-c3ccc4c(Nc5cc(O)c(F)cc5Cl)ccnc4c3)o2)CC1`, the IFI turned out to be 6.57%.

`CN(C)C(S)=NN=Cc1cccc(O)c1O` came in with an IFI of 7.25%.

In turn, `CC1CCN(CCCNc2ccc(C(=O)Nc3ccc(C(F)(F)F)cc3)cc2[N+](=O)[O-])CC1` displayed an IFI of 5.88%.

On to `CCc1cn2c3c(cc(C(=O)N[C@@H](Cc4ccccc4)[C@H](O)CNC(C)(C)CCCC(C)C)cc13)N(C)S(=O)(=O)C2`, for which the IFI is 15.7%.

Turning to `FC(F)c1nc2ccccc2n1-c1nc(N2CCOCC2)nc(N2CCOCC2)n1`, the IFI worked out at 0%.

Compound `CCCNCc1ccc(-c2ccc(CN(CCOC)C(=O)CCc3ccc(OC)cc3)cc2)nc1` had an IFI of 1.52%.

`CC(=O)Nc1sc(C)c(C)c1CN1CCc2ccccc2C1` showed an IFI of 2.52%.

`Oc1ccc(C2CNCCc3c2cc(O)c(OCc2ccccc2)c3Cl)cc1` (stereo not given): the IFI is 13.3%.

`N#Cc1ccc(-c2ccc(C(=O)Nc3ccc4c(c3)CCN(C3CCC3)CC4)nc2)cc1` returned an IFI of 4.62%.

As to `COc1ccc(NC(=O)c2cc(-c3ccc(NC(C)=O)cc3)cnc2N)cc1`, the IFI was 1.41%.

`Nc1ncc(-c2ccc(S(=O)(=O)Nc3ccc(C(=O)N[C@@H](CCC(=O)O)C(=O)O)cc3)cc2)c(=O)[nH]1` showed an IFI of 0.85%.

`CCN(CC)CCNc1ccnc2[nH]c3ccc(Cl)cc3c12` showed an IFI of 7.46%.

In turn, `COc1ccc(CN(C)CCOc2ccc(NC(=O)c3cccc4c(=O)c5cc(SC)ccc5[nH]c34)cc2)cc1OC` displayed an IFI of 10.3%.

`O=C(Nc1cccc(CN2CCCN(CC3CC3)CC2)c1)c1ccc(Cl)c(Cl)c1`: the IFI was 2.7%.

`Oc1c(Br)cc2oc3c(c2c1CNCc1ccccc1)CCCC3`: the IFI was determined as 4.13%.

Consider `Nc1cc2c(C3CCN(CC4CCN(C(=O)/C=C/c5ccc(Cl)c(Cl)c5)CC4)CC3)c[nH]c2cn1`, for which the IFI is 6.29%.

In turn, `CCCCN(CCCC)CCNC(=O)c1cc(OC(F)(F)F)ccc1O` yielded an IFI of 0.74%.

Turning to `COc1ccc(OCC(=O)Nc2nc(-c3ccc(OC)cc3)c(C)s2)cc1`, the IFI was determined as 1.85%.

`Cc1cccc2nc(-c3cccc(-c4ccc(NC(=O)C5CCCO5)cc4)c3)[nH]c12` (stereo not given) gave an IFI of 5.31%.

Turning to `CC(C)(C)OC(=O)N1CCC(C2CCN(C(=O)OC(C)(C)C)CC2)CC1`, the IFI is -0%.
